Series [1] in a line: Pharmacokinetics in CD3 humanized mice (CD3^hu/hu). As to conditions: single 0.4 mg/kg i.p., serum. Type of series: in vivo, mouse.
Series [2] concerns OVCAR-3/Luc. As to the kind of experiment: OVCAR-3/Luc xenograft in PBMC-engrafted NSG mice, therapeutic treatment. As to conditions: 10 μg/mouse i.p. 7 d post tumor implantation. Type of series: in vivo. From the text:
To assess the in vivo efficacy of the anti-MUC16/anti-CD3 bispecifics in human tumor xenograft studies, NOD scid gamma (NSG) mice (Jackson Laboratories, Bar Harbor, Me.) were pre-implanted with human peripheral blood mononuclear cells (PBMCs; ReachBio LLC., Seattle, Wash.) and then given ascites cells from the human ovarian cancer cell line OVCAR-3 (American Type Tissue Culture, Manassas, Va.) transduced with luciferase (OVCAR-3/Luc). OVCAR-3 cells endogenously express MUC-16.
Briefly, NSG mice were injected intraperitoneally (i.p.) with 5.0×10^6 human PBMCs. 8 d later, 1.5×10^6 ascites cells from the OVCAR-3/Luc cell line, previously passaged in vivo, were administered i.p. to the NSG mice engrafted with PBMCs. In the immediate treatment group, mice were treated i.p. on the day of OVCAR-3/Luc cell implantation with MUC16/CD3 Bispecific antibodies BSMUC16/CD3-001 or BSMUC16/CD3-005, or an isotype control, at a dose of 10 μg/mouse (N=5 mice/treatment group). In the therapeutic dose model, mice were treated i.p. 7 d post tumor implantation with the MUC16/CD3 Bispecific or control antibodies described above, at a dose of 10 μg/mouse (N=5/treatment group).
In all studies, tumor growth was monitored via bioluminescent imaging (BLI). […] Regions of interest were drawn around each cell mass and photon intensities were recorded as photons (p)/sec (s)/cm^2/steradian (sr). […]

Series [3] has as its target T1, soluble monomeric human MUC16 (hMUC16.mmh, last five SEA domains) (Homo sapiens, UniProt Q8WXI7).
T1 construct: C-terminal tags (.mmh)
Put plainly: Surface plasmon resonance (Biacore) binding to hMUC16 fragment at 25° C. As to conditions: Table 6, anti-MUC16/anti-CD3 bispecific antibodies.

Series [4] deals with human T cells (CD2+), CD69 / CD25 upregulation. Put plainly: T cell activation in PEO-1/PBMC co-culture. Type of series: cell-based. As to conditions: PEO-1 target cells. The procedure:
(§1) B. In analogous studies, MUC16-expressing (PEO-1 or OVCAR3-Luc) cell lines were labeled, plated and incubated overnight as described. Serial dilutions of MUC16×CD3 bispecific antibodies or isotype control were co-incubated. See results depicted in Tables 8B and 8C, and FIGS. 12A-12B.
(§2) T cell activation was assessed by incubating cells with directly conjugated antibodies to CD2, CD69 and/or CD25, and by reporting the percent of early activated (CD69+) T cells and/or late activated (CD25+) T cells out of total T cells (CD2+).

The subject of series [5] is OVCAR-3/Luc. As to the kind of experiment: OVCAR-3 model study 2 (xenogenic, NSG mice engrafted with human PBMCs). As to conditions: for Avg Radiance 4 days post-implantation (median ± SEM): baseline, before dosing started. Type of series: in vivo, mouse. As for the experimental part:
In further experiments, the in vivo efficacy of an anti-MUC16/anti-CD3 bispecific antibody was evaluated in xenogenic and syngeneic tumor models. For the first xenogenic model, NSG mice were injected intraperitoneally (IP) with OVCAR-3/Luc cells previously passaged in vivo (Day 0) eleven days after engraftment with human PBMCs. Mice were treated IP with 0.01, 0.1, or 0.5 mg/kg BSMUC16/CD3-001, or administered 0.5 mg/kg non-binding control or CD3-binding control on Days 6, 10, 13, 16, and 21. Tumor burden was assessed by BLI on Days 6, 14, and 20 post tumor implantation. […] For the second xenogenic model, NSG mice were injected with OVCAR-3/Luc cells previously passaged in vivo (Day 0) thirteen days after engraftment with human PBMCs and a second batch of PBMCs were transferred on Day 4. Mice were treated intravenously (IV) with 0.1, 0.5, 1, or 5 mg/kg BSMUC16/CD3-005 or administered 5 mg/kg non-binding control or CD3-binding control on Days 5, 8, 12, 15, 19 and 22. Tumor burden was assessed by BLI on Days 4, 11, 18 and 25. […] To examine efficacy in an immune-competent model, the murine CD3 gene was replaced with human CD3 and a portion of the mouse MUC16 gene was replaced with the human sequence. […] For the syngeneic tumor model, ID8-VEGF cell lines engineered to express the portion of human MUC16 were used. Mice were implanted with the ID8-VEGF/huMUC16 cells subcutaneously and treated with 100 μg of BSMUC16/CD3-001 either on day of implantation or ten days after implantation when tumors were established.
Implantation and measurement of xenograft tumors: Ascites cells from the OVCAR-3/Luc cell line, previously passaged in vivo, were administered IP into the NSG mice previously engrafted with human PBMCs. BLI was measured as a read-out for tumor growth several days after OVCAR-3/Luc implantation and at multiple times during study. After initial BLI measurement for cohorting, mice were divided into groups of 4-6 animals each and administered MUC16×CD3 bispecific or control antibodies twice per week throughout the study.
Calculation of xenograft tumor growth and inhibition: Bioluminescence imaging was used to measure tumor burden. Mice were injected IP with 150 mg/kg (as determined by body weights at the start of the experiment) of the luciferase substrate D-luciferin suspended in PBS. Ten minutes after dosing, BLI imaging of the mice was performed under isoflurane anesthesia using the Xenogen IVIS system. Image acquisition was carried out with the field of view at D, subject height of 1.5 cm, and medium binning level for 0.5-min exposure time. BLI signals were extracted using Living Image software. Regions of interest were drawn around each tumor mass and photon intensities were recorded as p/s/cm^2/sr. Statistical analysis was performed using GraphPad Prism software (Version 6). Statistical significance for the BLI results was determined using an unpaired nonparametric Mann-Whitney t-test. Fold changes were calculated by the formula: (Day20-Day6)/Day6 for study 1 and (Day25−Day4)/Day4 for study 2.

For another series, the target named is mouse CD3 (Mus musculus, UniProt P04235+P22646). Put plainly: Binding to mouse CD3 (statement only).
Sequence of mouse CD3 (P22646 22-189): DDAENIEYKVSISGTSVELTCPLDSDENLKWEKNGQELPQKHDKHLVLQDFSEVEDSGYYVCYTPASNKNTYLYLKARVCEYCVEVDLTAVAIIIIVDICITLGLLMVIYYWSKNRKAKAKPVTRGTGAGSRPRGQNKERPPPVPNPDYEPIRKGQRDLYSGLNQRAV
Sequence of mouse CD3 (P04235 22-173): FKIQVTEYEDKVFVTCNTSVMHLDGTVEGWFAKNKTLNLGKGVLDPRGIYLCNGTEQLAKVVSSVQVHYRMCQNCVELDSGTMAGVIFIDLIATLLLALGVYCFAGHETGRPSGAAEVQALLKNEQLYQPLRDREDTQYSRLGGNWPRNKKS
Another series deals with mouse MUC16. As to the kind of experiment: Binding to mouse MUC16 (statement only).
Series [6] deals with human T cells (CD2+), CD69 / CD25 upregulation. As to the kind of experiment: T cell activation in OVCAR3-Luc/PBMC co-culture. As to conditions: OVCAR3-Luc target cells. The series is classed as cell-based. The procedure:
as §1, §2

The nature of series [7]: Pharmacokinetics in humanized MUC16 x CD3 mice (MUC16^hu/hu x CD3^hu/hu). The series is classed as in vivo, mouse. As to conditions: single 0.4 mg/kg i.p.

T1 sequence (Q8WXI7 with tags, fused parts or gaps): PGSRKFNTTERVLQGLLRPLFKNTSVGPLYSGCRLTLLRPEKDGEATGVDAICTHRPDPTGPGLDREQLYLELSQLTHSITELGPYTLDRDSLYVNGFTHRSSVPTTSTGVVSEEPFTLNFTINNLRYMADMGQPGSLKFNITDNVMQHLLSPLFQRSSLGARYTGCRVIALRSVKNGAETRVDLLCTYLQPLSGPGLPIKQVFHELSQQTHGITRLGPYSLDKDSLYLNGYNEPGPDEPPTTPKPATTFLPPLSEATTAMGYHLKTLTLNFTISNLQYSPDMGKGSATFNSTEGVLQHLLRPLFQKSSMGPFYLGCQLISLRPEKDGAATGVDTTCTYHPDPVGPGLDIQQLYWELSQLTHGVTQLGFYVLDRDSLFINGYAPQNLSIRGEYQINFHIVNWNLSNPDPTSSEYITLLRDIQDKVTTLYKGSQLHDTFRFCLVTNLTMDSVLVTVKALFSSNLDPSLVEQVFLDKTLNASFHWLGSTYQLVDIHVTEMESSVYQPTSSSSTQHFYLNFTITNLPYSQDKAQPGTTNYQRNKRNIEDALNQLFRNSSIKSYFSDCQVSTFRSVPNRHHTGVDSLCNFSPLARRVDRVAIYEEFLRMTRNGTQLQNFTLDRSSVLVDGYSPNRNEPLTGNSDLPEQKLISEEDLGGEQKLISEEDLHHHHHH

B1: BSMUC16/CD3-005: anti-MUC16 x CD3 bispecific antibody, modified (chimeric) IgG4 Fc; H1H8767P arm, CD3-VH-G20 arm (SEQ ID NO: 1866) (antibody, V domains shown)
VH 1: QVQLVESGGGLVKPGGSLRLSCAASGFTFSNYYMSWVRQAPGKGLEWISYISGRGSTIFYADSVKGRITISRDNAKNSLFLQMNSLRAEDTAVYFCVKDRGGYSPYWGQGTLVTVSS
VH 2: EVQLVESGGGLVQPGRSLRLSCAASGFTFDDYSMHWVRQAPGKGLEWVSGISWNSGSIGYADSVKGRFTISRDNAKNSLYLQMNSLRAEDTALYYCAKYGSGYGKFYYYGMDVWGQGTTVTVSS
VL: [… about 100 residues …]PITFGQGTRLEIK
For B1, the Terminal antibody concentration in series [1] came to 0.66 µg/mL. Besides, in the series with OVCAR-3/Luc [2], the “Fold change in Avg Bioluminescent Radiance at Day 26 relative to Day 6 (mean ± SD)” value was 0.01 ± 0.02. In series [3], the ka is 94100 M⁻¹ s⁻¹. This molecule also registered a kd in series [3] of 0.000564 s⁻¹. Moreover, the EC50 – broadly, the midpoint of the concentration-response curve – in [4] (read-out: T cells activation (CD25 upregulation) EC50) was 0.106 nM; in series [4] (read-out: T cells activation (CD69 upregulation) EC50), 0.0172 nM; in series [6], 0.117 nM. Also, the “Avg Radiance 25 days post-implantation (median ± SEM)” value in the series with OVCAR-3/Luc [5] (0.1 mg/kg IV on Days 5, 8, 12, 15, 19 and 22) worked out at 7.63e+06 ± 1.83e+06 p/s/cm2^2/sr. For the same molecule, the “Fold change in Avg Radiance from Day 4 to D25 post-implantation (mean ± SD)” value in the series with OVCAR-3/Luc [5] (0.1 mg/kg IV, (Day25−Day4)/Day4) came out at 45.4 ± 35.7. The “Avg Radiance 4 days post-implantation (median ± SEM)” value is 1.53e+05 ± 1.93e+04 p/s/cm2^2/sr in the series with OVCAR-3/Luc [5] (group 0.1 mg/kg IV), 1.31e+05 ± 4.03e+03 p/s/cm2^2/sr in the series on OVCAR-3/Luc [5] (group 0.5 mg/kg IV), 1.38e+05 ± 4.65e+03 p/s/cm2^2/sr in the series on OVCAR-3/Luc [5] (group 1 mg/kg IV) and 1.54e+05 ± 1.03e+04 p/s/cm2^2/sr in the series on OVCAR-3/Luc [5] (group 5 mg/kg IV). Besides, in the series with mouse CD3, the “Binding to mouse CD3” value was “Neither BSMUC16/CD3-001 or BSMUC16/CD3-005 bind”. Moreover, the “Binding to mouse MUC16” value in the series with mouse MUC16 is “Neither BSMUC16/CD3-001 or BSMUC16/CD3-005 bind”. The molecule further returned an AUClast in series [7] of 34 ± 11 µg·days/mL.

Values taken from patent US12570764B2, “Anti-MUC16 antibodies, antibody-drug conjugates, and bispecific antigen-binding molecules that bind MUC16 and CD3, and uses thereof” (Regeneron Pharmaceuticals, Inc., priority 2016, dated 2026).
